Measurements as given in publication PMC12136788.
The list shows a part of the results.

T1: UNK ZnF1-3 (human, UniProt Q9C0B0 31-174)
T1 sequence: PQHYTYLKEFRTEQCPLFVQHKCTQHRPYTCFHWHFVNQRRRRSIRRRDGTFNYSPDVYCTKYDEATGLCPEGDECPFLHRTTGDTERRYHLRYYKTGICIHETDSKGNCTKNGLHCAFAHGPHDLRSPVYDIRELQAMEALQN

B1: 104849616_104851911_689_CDS_ENSMUSG00000021710_ENSMUST00000109315|mouse|control|control (ssRNA)
RNA: GGGAGUUCUACAGUCCGACGAUCCUCACUCAUUCUCUUCUUCAUUGAUUUGAUUUCAUUUUUUACGUGUUCUGGAAGAUGGAGUCCAUUCCUUUUCCCCAUUUUAAUUGAUUUUUCCAAGUAUCGCCUGGCCUCAGGCUUUAUCAACAGAGGAUUGAGCAUCA
B2: chrX:16864032:16864033:-_ENSG00000102054_ENST00000404022|hu_hu|motif|central (ssRNA)
RNA: GGGAGUUCUACAGUCCGACGAUCCAUGAUGUUAUCCUCAGACACUGAGCAAAUGACCCAAGGCUCAUUGGGGUUCCAGCGGAAAUCUGAAAUCUUAGCAGUGUGUCCUCCAUGAAUAAACAGGAGUUCUGGAGGCCCAUCUUCCAACAGAGGAUUGAGCAUCA
B3: chr3:158399885:158399886:+_ENSG00000168827_ENST00000264263|hu_mus|FALSE|FALSE (ssRNA)
RNA: GGGAGUUCUACAGUCCGACGAUCCUCAUCAGAAAACUCCAACUUCGUGUAGUCCUCUGGGGGCAAGGGCUCCAGCACUCCUAUUACUUUUCCAAACUGGCCGGCACCACCCGACUGCUUUUUAUGUGUAAAAUCAAACGGCACCAACAGAGGAUUGAGCAUCA
B4: 52112337_52131274_754_3pUTR_ENSMUSG00000022637_ENSMUST00000114471|mouse|control|control (ssRNA)
RNA: GGGAGUUCUACAGUCCGACGAUCAUCAAUGGUUGACUUCAGAGCCAUUGCUUCCAGGCCAGAGCUGAUCUGAUGGACCUCAUGCAGGCACUGUCUGAAGACUUUCCAUGGUACAAUAGUUUUGUCUCCAAAAAACUUCCUCCACAACAGAGGAUUGAGCAUCA
B5: chr18:10004928:10004929:-_ENSMUSG00000047879_ENSMUST00000092096|mus_hu|FALSE|FALSE (ssRNA)
RNA: GGGAGUUCUACAGUCCGACGAUCCUGAAGUCGCAAUUUAAGUCCUGUAAAAAGAUACUUGACUUCCUGAUUGAUAAAACAGCUAAGCUGAAGUUGAUUUUCCUUUCCUUUGGUGACUUCUUCUUCUUCAGAUUCUGUACAUUUCAACAGAGGAUUGAGCAUCA
B6: chr6:107361193:107361194:+_ENSG00000130349_ENST00000311381|hu_hu|FALSE|FALSE (ssRNA)
RNA: GGGAGUUCUACAGUCCGACGAUCUUUAGUAGAUUUUGUAGACCUUAUAUUACUUUUGAGUCUUACGGAAAAAGGAAAAAUACAUUCUGGAGAUAGUAAAAGCCCUGGGAGUCUCAGUGAGAAAAUAUUAUAAAAAAGUGUUUUCAACAGAGGAUUGAGCAUCA
B7: chr4:57314706:57314707:+_ENSG00000128050_ENST00000264221|hu_mus|hu_hu_hu_mus_True|78_88 (ssRNA)
RNA: GGGAGUUCUACAGUCCGACGAUCCAGAAUUUCAAAAAUAGCUUGUGUAGCAUGACUCAUGAUAUCCACUUCAGUCUGCCCUAUAACAAGGCCAGCAAAACAGAAUUUUGCAGCAAUGAGUUGCUCCUCAGACCACUGUGGAUCCAACAGAGGAUUGAGCAUCA
B8: chr5:132440482:132440483:+_ENSG00000170606_ENST00000304858|hu_mus|FALSE|FALSE (ssRNA)
RNA: GGGAGUUCUACAGUCCGACGAUCACCUUCCAAGGCGUAAUACGAACUUCUGUCAUGUAUAAGGAAAAGCCUGCCUGGUGGCUGUCGCGGCUUUUGUUAGAGCUCAGUUUCCCCAAACACACUUCACCUUGUAGAAGCAUGAUUCAACAGAGGAUUGAGCAUCA
B9: chr1:63113421:63113422:-_ENSG00000116641_ENST00000251157|hu_mus|FALSE|FALSE (ssRNA)
RNA: GGGAGUUCUACAGUCCGACGAUCUAAACAUUUCACAAGAAGUCUUUGUCCGAAAUGCUCUUUGGGCACAUCAGGAACACUGAGCCUUUCGAUUGGUUCUUCCUCAUCUGGUGAUGGAUGCAAAGCAAACAGUUCCUUGUGGCGCAACAGAGGAUUGAGCAUCA
B10: chr10:126492284:126492285:-_ENSMUSG00000040502_ENSMUST00000040307|mus_hu|motif|central (ssRNA)
RNA: GGGAGUUCUACAGUCCGACGAUCAAAGUGCCCAGGCUUCAGGCUGACCCACAUUGUAAACAGUCCUUCCCAAAUCUUUUCUCGGUAAACAACAGUCCUCUAUGCUGCUGCCUCCAAACAUAAUGCCAUCCAUUAAUACCACUGCAACAGAGGAUUGAGCAUCA
B11: chr4:115894766:115894767:+_ENSMUSG00000028698_ENSMUST00000030464|mus_hu|mus_mus_mus_hu_True|18_38 (ssRNA)
RNA: GGGAGUUCUACAGUCCGACGAUCUUCCACACGGAAAUGUACUUCGGGUUUUCCAACGGCCAGUACCAGUCCGGCCAAACUACCCGAACAGGGUCCUGUCCUCCUCUCCUACAGAACUAAAGCACCCGCCCCCGAACUUUCAAGCAACAGAGGAUUGAGCAUCA
B12: chr3:100366718:100366719:-_ENSMUSG00000008763_ENSMUST00000008907|mus_mus|motif|central (ssRNA)
RNA: GGGAGUUCUACAGUCCGACGAUCGACAAACAUCACAGGAAGCUUACUGCCCAUCAGGCUUGGCACACCACAACAUAGAUGCGGGCAAGAUGAUACCACAGACUUGUACCUUUCGUGAGUCCUGCAGUUGCUGAUUGACUGUUACAACAGAGGAUUGAGCAUCA
B13: chr2:209110096:209110097:-_ENSG00000138413_ENST00000345146|hu_mus|FALSE|FALSE (ssRNA)
RNA: GGGAGUUCUACAGUCCGACGAUCUUCUUCAAAGUCAUGUACCAUGUAUGUCACCUUCUGAGUUCCAUCUUUUGGUGUGUAGGUUAUCUCUACUUUUCCAGGCCCAGGAACAACAAAAUCAGUUGCUCUGUAUUGGUCCCCAUACAACAGAGGAUUGAGCAUCA
B14: chr9:109937893:109937894:+_ENSMUSG00000032479_ENSMUST00000165876|mus_mus|FALSE|FALSE (ssRNA)
RNA: GGGAGUUCUACAGUCCGACGAUCUUCACGUGGUUUUUCUUCAGUCUGUACAGUUCCUUUGUCUUUAAUUGGAACUGUUGCUACUUUUGUUUCCAAGGGCAGUGCAAGAUCGGAGGCUGGAGCCAUGCUGUUGUCCACAAUCAGCAACAGAGGAUUGAGCAUCA

Target: T1, UNK ZnF1-3
Assay: nsRBNS (natural sequence RNA bind-n-seq); RBNS binding buffer (assumed for nsRBNS): 25 mM Tris pH 7.5, 150 mM KCl, 3 mM MgCl2, 0.01% Triton X-100, 500 ug/ml BSA, 20 U/ml SUPERase-In, 4 C; UNK is unkempt and MSI1 is Musashi-1; names of the RNAs are library labels; protein concentration not given here; high values mean tight binding

Binder | binding signal
B1 | 0.464 enrichment R
B2 | 1.36 enrichment R
B3 | 0.934 enrichment R
B4 | 0.85 enrichment R
B5 | 0.601 enrichment R
B6 | 2 enrichment R
B7 | 0.939 enrichment R
B8 | 0.703 enrichment R
B9 | 0.87 enrichment R
B10 | 1.38 enrichment R
B11 | 0.991 enrichment R
B12 | 1.58 enrichment R
B13 | 0.645 enrichment R
B14 | 0.508 enrichment R
